# Experimental data from PubChem BioAssay AID686978 (National Center for Advancing Translational Sciences (NCATS), 2013).
# Hit rate of the full screen: of about 420,000 compounds, about 64,000 (15%) were called active. This list was built around the results that the source calls inconclusive (neither active nor inactive); the mix of calls is not that of the screen. The call rests on the fitted dose curve; in most records, active means well fitted inhibition curve with a large enough effect; inconclusive means small, poorly fitted or top-dose-only effect; inactive means flat fitted curve, though single readings scatter. No potency is given beside an inconclusive call; the fits are too rough.
# Assay: qHTS for Inhibitors of human tyrosyl-DNA phosphodiesterase 1 (TDP1): qHTS in cells in absence of CPT; further: nearly all actives have a fitted effect of over 55% in size
# Conditions: DT40 Tdp1-/- hTDP1 cells, no CPT, ATP luminescence, 48 h; activity change, negative = growth inhibition: at 46.2 µM (top of the series) unless noted
# Procedure, shortened: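 Seeded 400 DT40-hTDP1 cells/well (vehicle DMSO, no 20 nM CPT); pinned compounds; ≥48 hr at 37 °C; CellTiter-Glo luminescence as viability measure.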
# On the % scale 0 is the no-effect control and ±100 the full control effect; potency means the concentration at half of the fitted maximal effect; tags describe the fitted curve by direction and shape.
Structure (SMILES),Potency,"activity change, negative = growth inhibition"
N#C/C(=C\c1ccc[nH]1)C(=O)c1ccccc1,"inconclusive [inhibitor, partial curve, poor fit]",
CC(C)NC(=S)N1CCN(c2ncccn2)CC1,inactive,
CCOC(=O)C1CCCN(C(=O)CCCOc2cc(=O)n(C)c3ccccc23)C1 (stereo not given),"inconclusive [inhibitor, single point]",
Cc1nn(Cc2ccc([N+](=O)[O-])cc2)c(=O)n1N(C)c1ncc(C(F)(F)F)cc1Cl,active: 11.2 µM,
COc1ccccc1N1CCN(S(=O)(=O)CCNC(=O)c2cccs2)CC1,"inconclusive [inhibitor, single point]",
C/C(=N\NC(=O)c1cccc(C)c1)c1cccc(NC(=O)c2ccco2)c1,inactive,
Cc1cccc(Cn2c(=O)c3c(nc4n3CCN4Cc3ccco3)n(C)c2=O)c1,active: 20.6 µM,
Cc1ccc(C(=O)N2CCN(Cc3ccc4c(c3)OCO4)CC2)o1,inactive,
O=C(COc1ccc(Cl)cc1)N1CCN(S(=O)(=O)c2ccc(Cl)cc2)CC1,"inconclusive [inhibitor, single point]",
COc1ccccc1C(=O)Nc1ccnn1C1CCN(Cc2cc(C)c(C)cc2C)CC1,active: 18.4 µM,
O=C(Nc1ccc(F)cc1F)c1cc(-c2ccco2)on1,"inconclusive [inhibitor, full curve, poor fit]",
CCN(C(=O)COC(=O)CNC(=O)c1ccc(Cl)cc1Cl)c1c(N)n(Cc2ccccc2)c(=O)[nH]c1=O,inactive,
Cc1ccc(C)c(Cn2c(=O)cc(C)c3c(C)nn(C)c32)c1,"inconclusive [inhibitor, single point]",
COCCCNC(=O)/C=C1\Sc2ccccc2N(Cc2ccccc2F)C1=O,"inconclusive [inhibitor, partial curve, poor fit]",
Cc1cccc(C)c1NC(=O)c1cnccn1,inactive,
C#CC(C)(C)NC(=O)c1cnc(-c2ccccc2)nc1-c1ccccc1,"inconclusive [inhibitor, single point]",
CCOC(=O)c1c(NC(=O)CSc2nnc(C)s2)sc2c1CCN(C)C2,"inconclusive [inhibitor, partial curve]",
Cc1sc2ncnc(N(C)C3CCCCC3)c2c1C,"inconclusive [inhibitor, single point]",
O=C(NCc1ccco1)C1CCN(c2nc3ccccc3n2Cc2ccccc2F)CC1,"inconclusive [inhibitor, single point]",
CCOc1cccc(NC(=O)/C(C#N)=C/c2cccnc2)c1,"inconclusive [inhibitor, single point]",
COC(=O)c1c(NC(=O)CSc2nnnn2-c2ccc3c(c2)OCO3)sc(C)c1C,"inconclusive [inhibitor, partial curve]",
O=C(c1ccccc1)N(Cc1ccco1)Cc1cccs1,active: 13 µM,
Cc1ccc(S(=O)(=O)N(C)C)cc1NC(=O)c1cccs1,,inconclusive: -24.1% [inhibitor]

Structure (SMILES),Potency,"activity change, negative = growth inhibition"
COc1ccc(NC(=O)/C=C\C(=O)N(c2ccc(C(C)C)cc2)C(C(=O)NCc2ccco2)c2ccc(F)cc2)cc1 (stereo not given),"inconclusive [inhibitor, single point]",
O=C(Nc1ccc(Cl)cc1Cl)C1CCC(=O)N1Cc1ccccc1Cl (stereo not given),"inconclusive [inhibitor, partial curve, poor fit]",
COc1cnc(N(C)C)nc1Sc1cccc(Cl)c1,"inconclusive [inhibitor, single point]",
Cc1cccc(C(=O)Nc2ccc(C(=O)OCc3cc(=O)n4nc(CC(C)C)sc4n3)cc2)c1,"inconclusive [inhibitor, partial curve]",
Nc1nc2c(nc(Br)n2C2CC(O)C(CO)O2)c(=O)[nH]1 (stereo not given),inactive,
Cc1cc(C(=O)N2CCCC(N3CCN(c4ccc(F)cc4)CC3)C2)no1 (stereo not given),inactive,
CC[n+]1c(/C=C/Nc2ccccc2)sc2ccccc21,active: 2.91 µM,
CCn1c(C)c(C)c2cc(C(=O)NCc3cccc(C)c3)ccc21,"inconclusive [inhibitor, single point]",
CC(=O)N1CCN(C(=O)c2sc3ncnc(NCC4CCCO4)c3c2C)CC1 (stereo not given),inactive,
Cn1nnc(NC(=S)NC(=O)c2ccc(-c3ccc(Br)cc3)o2)n1,"inconclusive [inhibitor, partial curve, poor fit]",
COC(=O)[C@]1(Cc2ccccc2)N[C@H](CN(C)S(=O)(=O)c2ccc(OC)cc2)[C@@H]2C(=O)N(C)C(=O)[C@@H]21,"inconclusive [inhibitor, single point]",
COc1cccc(CNC(=O)CCc2c(C)c3cc4c(C)coc4c(C)c3oc2=O)c1,"inconclusive [inhibitor, partial curve]",
O=C(Nc1ccc2nc(-c3cccnc3)[nH]c2c1)c1ccccc1F,"inconclusive [inhibitor, partial curve, poor fit]",
COc1ccc(N2CCN(C(=O)c3ccc(C)cc3Cl)CC2)cc1,"inconclusive [inhibitor, partial curve, poor fit]",
Cc1c(C(=O)N2CCCCC2c2cccnc2)sc2ncnc(NCc3cccs3)c12 (stereo not given),"inconclusive [inhibitor, single point]",
CC(C)NC(=O)C1(C)CCN1C/C=C/c1ccccc1 (stereo not given),"inconclusive [inhibitor, single point]",
CCOC(=O)c1nn(-c2ccccc2)c(=O)c2c(N)scc12,active: 14.6 µM,
O=C1c2ccccc2C(=O)c2c1oc(C(F)(F)F)c2C(=O)c1ccccc1,active: 16.4 µM,
CC1CN(S(=O)(=O)c2cc(C(=O)NCCC3=CCCCC3)ccc2Cl)CC(C)O1 (stereo not given),active: 14.6 µM,
OC12CC3C[C@H](C1)C(N1CCOCC1)[C@@H](C3)C2 (stereo not given in full),inactive,
CC1CC(=O)NN1C(=O)c1ccccc1 (stereo not given),inactive,
O=C(NCCN1CCN(C(=O)c2cccc(Br)c2)CC1)C(=O)NCc1ccccc1,"inconclusive [inhibitor, single point]",
